Reference: the BET-seq Pho4 binding data (Le et al. 2018)
Some of the results follow. These are noisy estimates, calculated here from bound and input reads.

Biological target: T1, Pho4 (S. cerevisiae) (UniProt P07270)
T1 sequence: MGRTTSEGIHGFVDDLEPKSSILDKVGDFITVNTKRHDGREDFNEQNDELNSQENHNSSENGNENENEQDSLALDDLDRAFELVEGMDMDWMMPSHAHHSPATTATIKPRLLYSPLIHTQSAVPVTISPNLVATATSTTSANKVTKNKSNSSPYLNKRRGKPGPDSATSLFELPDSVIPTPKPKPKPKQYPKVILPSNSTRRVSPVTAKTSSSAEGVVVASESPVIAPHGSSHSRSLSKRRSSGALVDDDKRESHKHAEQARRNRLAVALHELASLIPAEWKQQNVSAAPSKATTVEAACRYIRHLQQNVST
Experiment: relative binding free energy (BET-seq); higher = weaker binding
Conditions: reference: library average

Row | Sequence | relative binding free energy [kcal/mol]
1 | AATAGCACGTGGTCAT | -0.08
2 | ATTGCCACGTGTGGAG | -0.07
3 | TTATGCACGTGTAGCG | 0.07
4 | TTTTTCACGTGGGACG | 0.26
5 | GGGTTCACGTGGCTGC | 0.28
6 | AGGATCACGTGTGTCG | 0.09
7 | GGCGTCACGTGGGGTT | 0.02
8 | AGGGTCACGTGTCATG | 0.04
9 | CAGTGCACGTGATTGG | 0.15
10 | TGACACACGTGTGGTA | -0.02
11 | ATTGTCACGTGGCGGG | 0.03
12 | ATTTACACGTGTGTGT | 0.08
13 | TATTGCACGTGTTGGG | -0.05
14 | ATTCACACGTGGTATG | -0.02
15 | CGGTACACGTGCGGTG | 0.01
16 | GTGATCACGTGTCGGT | 0.07
17 | GGGGGCACGTGCTCGT | -0.23
18 | TGGGGCACGTGGTCGG | -0.21
19 | TGTCGCACGTGAAATT | 0.29
20 | TGGCGCACGTGAGGTA | 0.17
21 | TGTGACACGTGTGGAC | 0.14
22 | AGGTGCACGTGACTGG | 0.09
23 | ATGATCACGTGGTAGT | 0.14

Row | Sequence | relative binding free energy [kcal/mol]
24 | TCCGTCACGTGGGTTT | -0.04
25 | GGTTCCACGTGTTTTG | 0.13
26 | TATTTCACGTGTACGT | 0.16
27 | TATACCACGTGGAGGT | 0.02
28 | GGCGCCACGTGTGTGT | 0.01
29 | TTTTTCACGTGACCTT | 0.29
30 | TGGGTCACGTGAGATG | 0.35
31 | ATTAGCACGTGGTGAT | -0.05
32 | TGTGACACGTGGGGCA | -0.28
33 | TATGGCACGTGGCAGT | -0.17
34 | CTTGGCACGTGCAGTT | 0.04
35 | AGTCTCACGTGTGGGC | 0.2
36 | AAAGTCACGTGCGGTT | 0.16
37 | AGCGACACGTGGGTTC | 0.11
38 | TGGGTCACGTGGTATA | 0.05
39 | TATGTCACGTGGGAAC | 0.11
40 | GTCTACACGTGAGTAT | 0.36
41 | TGAAGCACGTGTTGTC | -0.05
42 | GATGCCACGTGGGGTT | -0.1
43 | TTATACACGTGTTCTG | -0.24
44 | GGGATCACGTGTTGGC | 0.26
45 | ATGATCACGTGTGCGT | -0.04
46 | GGGATCACGTGATTTG | 0.49

Row | Sequence | relative binding free energy [kcal/mol]
47 | GGTTGCACGTGGCAAT | -0.08
48 | ACCTGCACGTGGGGGG | -0.03
49 | AGGTGCACGTGTTGAT | -0.06
50 | GGTTCCACGTGTATAT | 0.11
51 | ATTGTCACGTGGGACA | -0.2
52 | TTCTTCACGTGCGATG | 0.24
53 | CTTCTCACGTGTTAGG | 0.24
54 | GAAAGCACGTGAGTCG | 0.34
55 | TGACGCACGTGATTGG | -0.09
56 | CGGTACACGTGTTGTT | 0.24
57 | TTTGTCACGTGCGCGG | 0
58 | GTAATCACGTGAGCGT | 0.32
59 | GTAGTCACGTGTTGGC | 0.22
60 | TGAGTCACGTGTAATT | 0.13
61 | AAAGTCACGTGGGTCG | 0.1
62 | GTAGGCACGTGTTATA | -0.04
63 | GATGGCACGTGGAAGT | 0.03
64 | ATAGGCACGTGTTAAG | -0.08
65 | ATTTGCACGTGTAGGC | 0.07
66 | GTGGGCACGTGAGTCA | 0.1
67 | TTAGTCACGTGCTGCT | 0.02
68 | AAGATCACGTGAGGGT | 0.4
69 | ATAAACACGTGTTAGG | 0

Row | Sequence | relative binding free energy [kcal/mol]
70 | AAATGCACGTGTTTCT | 0.02
71 | AGAGGCACGTGAAGGG | 0.02
72 | TGGGGCACGTGACCGA | 0.06
73 | TTTTACACGTGAGCGA | 0.23
74 | TGCATCACGTGTTAAT | 0.17
75 | TAGGGCACGTGACTGG | -0.05
76 | AGTTTCACGTGTATTC | 0.22
77 | TTACGCACGTGTAGGA | -0.1
78 | ATTCACACGTGTGTTA | 0.19
79 | TTAGACACGTGGGTTT | -0.07
80 | CAGGTCACGTGTTGAT | 0.12
81 | TTGGGCACGTGCATGC | -0.14
82 | ATTGACACGTGGTGAA | -0.13
83 | GGGGGCACGTGAGGGA | 0.18
84 | GTGAACACGTGGTAAA | 0.14
85 | GGTTGCACGTGGCGCA | -0.01
86 | GCGGGCACGTGGGGTT | -0.19
87 | GAGTGCACGTGATGGA | 0.17
88 | AGGCGCACGTGAGGGG | 0.13
89 | TCGCTCACGTGTTTGT | 0.24
90 | ATGTGCACGTGCGATA | -0.04
91 | CGGGTCACGTGAAATT | 0.48
92 | CTTGGCACGTGGAATT | 0.15

Row | Sequence | relative binding free energy [kcal/mol]
93 | TCGGACACGTGGCGGG | -0.15
94 | TTTCCCACGTGTATGG | 0.15
95 | TGGAGCACGTGCTTAT | -0.16
96 | GAGTTCACGTGGATAT | 0.42
97 | CGAGTCACGTGAAGGA | 0.54
98 | ATGAGCACGTGCGAGG | -0.19
99 | TAAATCACGTGTACGT | 0.29
100 | GGTTTCACGTGGTGCG | 0.27
101 | GGTGGCACGTGGCCGA | -0.26
102 | GTGTCCACGTGCGGGG | -0.02
103 | GTCGGCACGTGTTGTG | -0.05
104 | GGAGTCACGTGTGTGT | 0.18
105 | TATTGCACGTGCTGGG | -0.05
106 | TAGGGCACGTGGTAAT | -0.07
107 | GGTAACACGTGGGTCA | -0.16
108 | GCGGTCACGTGGGGAT | 0.13
109 | TTTATCACGTGGTAGT | 0.18
110 | TGCTACACGTGGGGCT | 0.01
111 | AGGCTCACGTGGAGTT | 0.21
112 | GATCGCACGTGTTAGT | 0.08
113 | GAGTTCACGTGTAAAG | 0.38
114 | ACTTTCACGTGATGGG | 0.29
115 | AAGGGCACGTGGCGAA | -0.09
